Tested on: peptide-loaded T2 cells
Experiment: Induction of primary CTL responses; cytotoxicity toward peptide-loaded T2 cells
Conditions: different donors and differing peptide concentrations
Description: Induction of Primary CTL responses to peptides. These peptides were next used to stimulate T cells specific for peptide-coated targets. PBMC from a normal healthy donor heterozygous for HL-A2.1 were stimulated with peptide-pulsed T2 cells. The T2 cell line has been used by others as an antigen presenting cell for the generation of peptide-specific CTL. Briefly, T2 cells (which co-express the costimulatory molecule B7.1) were washed 3 times in serum-free RPMI culture media supplemented with penicillin/streptomycin and glutamine (CM) and incubated with peptide at 20 μg/mL for 2 hr in CM. The peptide loaded T2 cells were then irradiated with 7500 cGy, washed once, and suspended with freshly isolated PBMC at a 1:1 ratio in CM supplemented with 10% human serum (HS) (Sigma, St. Louis, Mo.). After 7 days in culture, a second stimulation was performed and the following day, 60 IU/ml of recombinant human interleukin-2 (rhIL2) (Biosource International, Camarillo, Calif.) was added. After 14 days in culture a third stimulation was performed, followed on day 15 by addition of rhIL-2. A fourth stimulation was performed on day 21 followed on day 22 by the addition of rhIL2. After a total of 27 days in culture, the peptide-stimulated T cells were harvested and tested for peptide-specific cytotoxicity toward Calcein AM-labeled T2 cells, leukemia cell lines, and fresh human leukemia cells, as merely exemplary embodiments. Such studies are extrapolated to breast cancer cells using similar procedures.
The five MPO peptides discussed above were used to stimulate T cells specific for peptide-coated targets. PBMC from a normal healthy donor heterozygous for HLA-A2.1 were stimulated with peptide-pulsed T2 cells. The T2 cell line has been used by others as an antigen presenting cell for the generation of peptide-specific CTL. Briefly, T2 cells (which co-express the costimulatory molecule B7.1) were washed 3 times in serum-free RPMI culture media supplemented with penicillin/streptomycin and glutamine (CM) and incubated with peptide at concentrations ranging from 0.2 to 200 μg/mL for 2 hr in CM. […]

| Sequence | elicitation of peptide specific CTL lines |
| --- | --- |
| LIQPFMFRL [MY5] | No peptide specific CTL lines could be elicited |
| LLSYFKQPV [MY3] | No peptide specific CTL lines could be elicited |
| SLWRRPFNV [MY1] | No peptide specific CTL lines could be elicited |
